About 65 (0.1%) of roughly 45,000 compounds were called active. Calls follow the shape of the dose curve; as a rule, active = well fitted activation curve with a large enough effect; inconclusive = small, poorly fitted or top-dose-only effect; inactive = no such curve, though single readings can be large or run the other way. Some of the results follow.
Target: Galactocerebrosidase (Homo sapiens) (UniProt P54803)
Test: A Novel Cell-Based Assay to Identify Small Molecules for B -Galactocerebrosidase; also: 0% is about no effect; nearly all actives have a fitted effect of over 65% in size
Settings: 145M-Twi-hGALC-G270D cells, HMU-beta-Gal fluorescence, 48 h; series mostly up to 57.5 µM; activation: at the top concentration
How it was run: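 qHTS, 1536-well; 145M-Twi-hGALC-G270D cells (WT line also made) in DMEM/F12 + 10% FBS; compound incubation on live cells; HMU-β-gal 0.1 mM final, pH 5.2, NaTC; carbonate stop; fluorescence increase = enhanced residual activity.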

Sequence of UniProt P54803 (P54803 whole entry, looked up): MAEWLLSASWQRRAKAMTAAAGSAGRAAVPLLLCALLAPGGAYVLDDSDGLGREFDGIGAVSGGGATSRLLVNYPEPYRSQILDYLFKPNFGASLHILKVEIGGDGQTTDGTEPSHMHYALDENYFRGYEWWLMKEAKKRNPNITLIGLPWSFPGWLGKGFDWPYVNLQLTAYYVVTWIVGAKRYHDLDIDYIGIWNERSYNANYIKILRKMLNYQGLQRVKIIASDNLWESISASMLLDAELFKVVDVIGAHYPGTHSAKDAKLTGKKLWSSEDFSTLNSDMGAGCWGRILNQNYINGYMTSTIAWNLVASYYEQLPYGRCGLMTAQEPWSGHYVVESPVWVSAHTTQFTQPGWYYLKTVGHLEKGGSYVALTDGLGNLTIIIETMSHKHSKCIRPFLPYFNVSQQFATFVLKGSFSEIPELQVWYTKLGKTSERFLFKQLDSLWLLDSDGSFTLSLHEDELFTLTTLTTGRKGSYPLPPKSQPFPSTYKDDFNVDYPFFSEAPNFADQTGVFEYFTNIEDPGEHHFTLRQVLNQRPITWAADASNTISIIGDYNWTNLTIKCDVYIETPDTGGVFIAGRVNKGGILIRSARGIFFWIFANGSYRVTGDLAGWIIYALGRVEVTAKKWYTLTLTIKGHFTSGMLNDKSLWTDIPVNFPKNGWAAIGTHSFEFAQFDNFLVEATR

activation, inactive:
COc1ccccc1Nc1ncc2c(n1)CCN(Cc1cc(F)cc(F)c1)C2 -16.4%, Cc1cccn2c(=O)c3cc(C#N)c(=O)n(-c4nnc(SCc5ccc(F)cc5)s4)c3nc12 -13.7%, COc1ccc(NC(=O)c2cccn2-c2nnc(N3CCCCC3)s2)c(OC)c1 -14.7%, CCOC(=O)COc1cc(C)c(Cl)cc1C(=O)c1ccn2nc(-c3ccc(OC)cc3)cc2n1 0.351%, O=C(CSc1ncc2c(n1)-c1cc(Cl)ccc1N(Cc1ccccc1)S2(=O)=O)NCCc1ccccc1 -9.22%, CS(=O)(=O)Nc1ccc(-c2nc3ccccc3s2)cc1 0.399%, CCOC(=O)c1ccc(NC(=O)CSc2nc(-c3ccc(F)cc3)cc(C(F)(F)F)c2C#N)cc1 -13.7%, CCOc1ccc(NC(=O)C2=C(C)C(=O)OC23CCC(C)CC3)cc1 (stereo not given) -5.59%, Cc1ccc(NC(=O)Nc2c(C)n(C)n(-c3ccccc3)c2=O)c(Cl)c1 -23.5%, COc1ccccc1NC(=O)c1ccc(-c2nc(COc3ccc(C)cc3)c(C)o2)cc1 -12.9%, CN(CCCN1c2ccccc2CCc2ccccc21)CC(=O)c1ccc(Cl)cc1 -11.7%, CCc1nn(CC(=O)NCCc2ccc(OC)c(OC)c2)c(=O)c2cc3occc3n12 -4.23%, CCCCOc1ccc(CNC(=O)CN2C(=O)CCn3nc(-c4cn(C)c5ccccc45)cc32)cc1 -15.7%, COc1ccc(NC(=O)C2CCCN(S(=O)(=O)c3c(C)[nH]c(=O)[nH]c3=O)C2)cc1 (stereo not given) 6.97%, CCOc1cccc(CNC(=O)c2ccc(N3CCCC3)c(NC(=O)Nc3ccccc3CC)c2)c1 -25.1%, CCOC(=O)c1c(C)[nH]c(C)c1S(=O)(=O)N(C)CC(=O)NCc1ccc(C)cc1 -3.69%, COc1ccc(C2CC(=O)c3cc(-c4nc(-c5ccc(C)cc5)cs4)c(=O)[nH]c3C2)cc1 (stereo not given) -12.7%, CC(C)c1ccc(NC(=O)Cc2ccc(NC(=O)N3CCCCc4ccccc43)cc2)cc1 -1.01%, CCC1CN(C(=O)NCc2ccc(F)cc2)c2cc(Cl)ccc2O1 (stereo not given) -15.4%, CCOc1ccc(/C=C/C(=O)Nc2sc3c(c2C(=O)OC)CCCC3)cc1 -7.36%, Nc1nc(Nc2cccc(Cl)c2)sc1C(=O)c1ccc(F)cc1 -5%, COc1ccc(-c2nn(-c3ccc(C)c(Cl)c3)c3c2cnc2cc(OC)c(OC)cc23)cc1 -7.67%, COc1cc(OC)c(NC(=O)CC(C)S(=O)(=O)c2ccc3c(c2)NC(=O)CO3)cc1Cl (stereo not given) -5.35%, CCn1cc(S(=O)(=O)c2ccc(OC)cc2)c(=O)c2cc(F)c(N3CCCCCC3)cc21 -19.3%, COc1ccc(S(=O)(=O)NCCc2csc(-c3cccc(F)c3)n2)cc1OC -29.4%, CCc1ccc2oc(-c3cccc(NC(=O)COc4ccccc4Cl)c3)nc2c1 -15.5%, CCOc1ccc2nc(N3CCCC(C(=O)Nc4ccc(CC)cc4)C3)sc2c1 (stereo not given) -13.7%, CCN(CC)S(=O)(=O)c1ccc2c(c1)N(CC(=O)NCCc1ccccc1)C(=O)CO2 -7.73%, CCN1CCN(c2nc3c(S(=O)(=O)c4ccc(C)cc4)nnn3c3ccsc23)CC1 7.25%, CCC(Oc1ccccc1)C(=O)Nc1cc(-c2ccccc2F)nn1-c1ccccc1 (stereo not given) -31.6%, Cc1ccc(NC(=O)Cn2c(=O)nc(-c3ccccc3)c3ccccc32)cc1 -15%, Cc1cccc(C(=O)n2nc(-c3cccnc3)nc2NCc2ccc(F)cc2)c1 -28.5%, Cc1c(C(=O)NCc2cccc(F)c2)oc2c1-c1[nH]ncc1CC2 7.68%, CCCCOc1ccc(CNC(=O)c2cnc3sc(N4CCCCCC4)nn3c2=O)cc1 -11.7%, CCCCNC(=O)CCn1nc(-c2ccc(Cl)cc2)c2ccccc2c1=O -15.3%, CCOc1ccc(NC(=O)CSc2nc3ccsc3c(=O)n2CC)cc1 -5.59%, COc1cc(NC(=O)C(CC(C)C)N2Cc3ccccc3C2=O)cc(OC)c1 (stereo not given) -28.2%, CCN(CC)C(=O)c1ccc2c(c1)N(Cc1ccccc1F)C(=O)c1ccccc1S2=O (stereo not given) 2.49%, CC(C)(C)c1ccc(C(=O)Nc2ccc(NC(=O)c3ccc(Cl)c(Cl)c3)cc2)cc1 -30.4%, CCC(=O)N1CCc2cc(S(=O)(=O)NC(Cc3ccccc3)C(=O)NCc3ccccc3OC)ccc21 (stereo not given) -22.1%, COc1ccc(-c2cc(C)no2)cc1S(=O)(=O)N1CCCC(C)C1 (stereo not given) -20.8%, CC(C)CCNC(=O)c1cc(-c2ccc(Br)s2)nc2ccccc12 -1.78%, Cn1c(=O)[nH]c(=O)c2c1nc(CN1CCN(c3ccccc3)CC1)n2Cc1c(F)cccc1Cl 1.23%, Cc1cccc(NC(=O)c2ccc3[nH]c(C)cc(=O)c3c2)c1 -13.3%, COc1cccc(NC(=O)Nc2ccc3snnc3c2)c1 -5.47%, Cc1c(C(=O)N2CCCCCC2)c(S(=O)(=O)Nc2ccc(OC(F)(F)F)cc2)c(C)n1C -20%, O=C1CC(c2ccccc2)Cc2[nH]c(=O)c(C(=O)Nc3ccc(F)cc3)cc21 (stereo not given) -1.86%, CCOc1ccc(CCNC(=O)CCCc2nnc3n(CCCOC)c(=O)c4sccc4n23)cc1 -7.4%, CCOC(=O)c1ccc(NC(=O)CSc2cc(-c3ccccc3)nc(C)n2)cc1 -11.9%, Cc1c(-c2ccc(Cl)cc2)c(=O)oc2c(CN3CCN(C)CC3)c(O)ccc12 -9.71%, O=C(CNC(=O)c1ccccc1Cl)OCc1cc(=O)n2nc(C3CC3)sc2n1 -7.35%, CC(C)CC(=O)Nc1nnc(S(=O)(=O)N(C)c2ccc(Cl)cc2)s1 11.8%, Cc1ccc(C)c(N(C)C(=O)CCNC(=O)Cn2cnc3ccccc3c2=O)c1 -4.69%, CC(C)c1nn2c(=O)cc(COC(=O)c3cccc(NC(=O)c4ccccc4F)c3)nc2s1 -7.61%, O=S(=O)(c1cccc2cnccc12)N1CCCNCC1 -16%, CCOc1ccc(C2c3c(-c4ccccc4O)n[nH]c3C(=O)N2Cc2cccnc2)cc1OC (stereo not given) -9.95%, O=C(Nc1cccc(Cl)c1)C(Cc1ccccc1)n1cccc1 (stereo not given) -3.55%, CCC1Oc2ccc(C)cc2N(CC(=O)NCc2ccc(F)cc2)C1=O (stereo not given) -18.1%, COc1cccc2sc(N(Cc3cccnc3)C(=O)C3CCCCC3)nc12 -10.6%, CCOC(=O)C1CCCN(C(=O)c2cc3c(Cl)nc4ccccc4c3s2)C1 (stereo not given) -11%, CCOC(=O)c1ccc2c(c1)sc1nc(-c3ccc(OCC)cc3)cn12 -11.9%, COc1cccc(CNC(=O)Cn2c(=O)cc(C(F)(F)F)c3c(C)nn(C)c32)c1OC -11.8%, O=C(NCCS(=O)(=O)N1CCN(c2ccccc2F)CC1)c1ccccc1C(F)(F)F -11.9%, Fc1ccc(F)c(Nc2c3c(nc4ccc(Cl)cc24)CCC3)c1 -3.96%, CCN(CC)CCCNC(=O)c1c2c(nc3ccccc13)C(=O)N(C1CCCCC1)C2 -19.1%, CCOC(=O)c1c(NC(=O)c2cc(=O)c3cc(Cl)ccc3o2)sc(C)c1C -8.74%, COc1ccc(N2C(=O)C(CC(=O)Nc3ccc(Cl)cc3)N(Cc3ccc4c(c3)OCO4)C2=O)cc1 (stereo not given) -15.4%, Cc1cccc2sc(N(Cc3cccnc3)C(=O)CCS(=O)(=O)c3ccccc3)nc12 -4.16%, COc1ccc(NC(=O)CCc2nc3cccnc3n2-c2ccccc2)c(OC)c1 -8.15%, COCCn1c(=N)c(C(=O)NCC2CCCO2)cc2c(=O)n3ccccc3nc21 (stereo not given) -11%, CCOc1ccc(CCNC(=O)CSc2nnnn2-c2ccccc2Cl)cc1OCC -5.9%, CCN1CCN(C(c2ccc(C)cc2)c2sc3nc(-c4ccco4)nn3c2O)CC1 (stereo not given) -11.9%, Cc1cccc(-c2nc(SCc3cc(=O)c4cccc(F)c4[nH]3)n[nH]2)c1 -2.8%, Cc1ccc(C)c(N2CCN(C(=O)CN3CCSc4ccccc43)CC2)c1 -33.6%, COc1cc(C(=O)Nc2ccccc2OCc2cc(=O)n3c(C)csc3n2)cc(OC)c1OC -6.01%, CCOc1ccc(NC(=O)CC2Nc3cccc4cccc(c34)NC2=O)cc1 (stereo not given) -22.1%, CC1=C(c2ccc(C)c(C)c2)S(=O)(=O)N=C1N1CCN(c2cccc(C)c2)C(C)C1 (stereo not given) 2.83%, COc1ccc(C(=O)N2CCCCC2CCN2CCOCC2)cc1 (stereo not given) -5.8%, CCOC(=O)c1c(C)[nH]c(C)c1S(=O)(=O)N(C)CC(=O)Nc1cccc(Cl)c1C -9%, Cc1c(Cl)cccc1NC(=O)c1cc(-c2cccs2)on1 1.02%, COc1ccc(CN2CCCN(CC(=O)Nc3ccc(Br)cc3F)S2(=O)=O)cc1 -14.3%, Cc1ccc(NCc2cccn2-c2nnc(N3CCC(C(=O)NCc4ccccc4C)CC3)s2)cc1 -5.36%, Cc1ccc(-n2ncc(C(=O)NCc3ccc4c(c3)OCO4)c2C2CCN(C(=O)OC(C)(C)C)CC2)cc1C -41.7%, Cc1c(C(=O)N2CCC(C)CC2)c(S(=O)(=O)Nc2cccc(C#N)c2)c(C)n1C -1.72%, Cc1cc(-c2ccc(S(=O)(=O)Nc3cccc(C(F)(F)F)c3)s2)on1 -26.8%, CC(C)Sc1ncc(Cl)c(C(=O)Nc2nc3ccc(S(C)(=O)=O)cc3s2)n1 -14.7%, CCOC(=O)c1ccc(NC(=O)C2=C(C)C(=O)OC23CCCCCC3)cc1 7.71%, CN(C(=O)CSc1nc2ccc(NC(=O)COc3ccc(F)cc3)cc2s1)c1ccccc1 -5.11%, O=C(c1ccccc1Cl)N1CCCC(c2nc3c(nnn3Cc3ccc(F)cc3F)c(=O)[nH]2)C1 (stereo not given) -8.36%, Cc1ccc(-c2nc3cc(Cl)ccc3o2)cc1NC(=O)c1cc2ccccc2o1 -12.6%, NC1[C@H]2CN(c3nc4c(cc3F)c(=O)c(C(=O)O)cn4-c3ccc(F)cc3F)C[C@@H]12 (stereo not given in full) -6.83%, Cc1c(C(=O)N(C)C)sc2c1c(=O)n(-c1ccccc1C(F)(F)F)c(=O)n2Cc1ccccc1C#N -9.56%, Cc1cc(C)c(NC(=O)C2CCN(C(=O)N3CC(C)Oc4ccc(Cl)cc43)CC2)c(C)c1 (stereo not given) -11.4%, Cc1cc(C)cc(NS(=O)(=O)c2ccc(-c3cc(C)no3)s2)c1 -7.51%, COc1ccc(NC(=O)c2cc3c(=O)n(Cc4cccs4)ccc3nc2C)c(OC)c1 -20%
